PMC7144022, “Quinolinecarboxamides Inhibit the Replication of the Bovine Viral Diarrhea Virus by Targeting a Hot Spot for the Inhibition of Pestivirus Replication in the RNA-Dependent RNA Polymerase” (Molecules, 2020)

What was measured:
[1] = test system: TO502-2403res BVDV (F224P); conditions: read-out: EC50 (µM) of the Indicated Inhibitor; TO502-2403res F224P; SD in brackets
[2] = test system: TO505-6180res BVDV (F224Y N264D); conditions: read-out: EC50 (µM) of the Indicated Inhibitor; TO505-6180res F224Y N264D; SD in brackets
[3] = biological target: RCs from MDBK cells infected with the TO502-2403res strain (Bovine viral diarrhea virus, UniProt P19711, F3493P); assay: Replication complex (RC) assay, TO502-2403res BVDV; type: biochemical, bovine viral diarrhea virus (BVDV); conditions: RCs isolated 14 h post-infection
Method: The replication complex (RC) assay is similar to the one described before. In brief, BVDV-infected MDBK cells were suspended in an ice-cold hypotonic buffer A (10 mM Tris, 10 mM NaCl pH 7.8) and were further disrupted by 50 strokes with a Dounce homogenizer. The disrupted cells were pelleted by centrifugation at 1,000× g for 5 min at 4 °C. The supernatant fraction, containing cytoplasmic material and plasma membranes, was concentrated by high-speed centrifugation at 200,000× g for 20 min at 4 °C. The pellet was resuspended in 120 µL of hypotonic buffer B (10 mM Tris, 10 mM NaCl pH 7.8 and 15% glycerol) and used for an RNA polymerase assay. Replicase reactions were carried out, as described before, with some modifications. The [α-^33P]UTP (3,000 mCi/mmol) was replaced by [α-^33P]CTP (3,000 mCi/mmol). The following incubation, RNA extraction, RNA analysis, and quantification were performed, as previously described.

Structure (SMILES) | EC50 [1] | EC50 [2] | effect on activity of RCs from TO502-2403res infected cells [3]
Nc1nc2c(cnn2CCCc2ccc3c(c2)OCO3)c2nc(-c3ccco3)nn12 [LZ37, 7-[3-(1,3-benzodioxol-5-yl)propyl]-2-(2-furyl)-7H-pyrazolo[4,3-e][1,2, 4]triazolo[1,5-c]pyrimidin-5-amine] | > 100 µM | > 100 µM | –
O=C(Nc1ccn(-c2ccccc2)n1)c1cc(-c2ccccc2)nc2ccccc12 [TO502-2403, 2-phenyl-N-(1-phenyl-1H-pyrazol-3-yl)-4-Quinolinecarboxamide] | – | – | not susceptible
C[C@@]1(O)[C@H](O)[C@@H](CO)O[C@H]1n1ccc(N)nc1=O [2′-C-Met-Cyt] | 14 µM | 2.5 ± 0.4 µM | –
